Reference: PMC9767926, “Mechanism of human Lig1 regulation by PCNA in Okazaki fragment sealing” (Nature Communications, 2022)

How the values were obtained:
Assay in all cases: FRET or BRET; steady-state retention of PCNA-Cy3 (500 nM) on nicked DNA-Alexa Fluor 647 (500 nM, 3' ddC, one end blocked with 1 uM NeutrAvidin) pre-bound to Lig1 or variants; FRET between PCNA-Cy3 and the DNA; excitation 480 nm, 22 °C; deconvoluted Alexa Fluor 647 amplitude above baseline
Settings in all cases: both partners purified
[1] = biological target: T1, Lig1 Q390A/R391A/L392A/M393A/L394A mutant (human, UniProt P18858 1-919, Q390A | R391A | L392A | M393A | L394A)
T1 construct: Generated by PCR from Lig1_WT; also called Lig1_QRLML; source: E. coli BL21 (DE3), purified (phosphocellulose, HiTrap Q, HiTrap Blue, Superdex 200)

[2] = biological target: T2, N-terminus deleted Lig1 (residues 233-919) (human, UniProt P18858 233-919)
T2 construct: source: E. coli BL21 (DE3), purified (HisTrap, HiTrap Blue, SUMO protease, HisTrap flow-through, Superdex 200)

[3] = biological target: T3, full-length human DNA Ligase 1 (Lig1), wild type (human, UniProt P18858 1-919)
T3 construct: residues 1-919; also called Lig1_WT; source: E. coli BL21 (DE3), purified (phosphocellulose, HiTrap Q, HiTrap Blue, Superdex 200)

Measured: binding result

B1: Cy3-labeled PCNA N107C (natural protein)
chain: not shown
modifications: Cy3 maleimide label, final stoichiometry 3:1 Cy3 to PCNA trimer
notes: human PCNA with N107C, labeled with Cy3 maleimide; also called PCNA-Cy3
binds: all assays above
